Screen size: about 310,000 compounds; about 2,200 (0.71%) showed an effect of 50% or more. Effects have a minus sign here. Some of the results follow.
These molecules were tested against human ether-à-go-go-related gene (hERG) potassium channel (human, UniProt Q12809) (assay: primary screen, population patch clamp on CHO cells stably expressing hERG).
Sequence of human ether-à-go-go-related gene (hERG) potassium channel (Q12809 whole entry, looked up): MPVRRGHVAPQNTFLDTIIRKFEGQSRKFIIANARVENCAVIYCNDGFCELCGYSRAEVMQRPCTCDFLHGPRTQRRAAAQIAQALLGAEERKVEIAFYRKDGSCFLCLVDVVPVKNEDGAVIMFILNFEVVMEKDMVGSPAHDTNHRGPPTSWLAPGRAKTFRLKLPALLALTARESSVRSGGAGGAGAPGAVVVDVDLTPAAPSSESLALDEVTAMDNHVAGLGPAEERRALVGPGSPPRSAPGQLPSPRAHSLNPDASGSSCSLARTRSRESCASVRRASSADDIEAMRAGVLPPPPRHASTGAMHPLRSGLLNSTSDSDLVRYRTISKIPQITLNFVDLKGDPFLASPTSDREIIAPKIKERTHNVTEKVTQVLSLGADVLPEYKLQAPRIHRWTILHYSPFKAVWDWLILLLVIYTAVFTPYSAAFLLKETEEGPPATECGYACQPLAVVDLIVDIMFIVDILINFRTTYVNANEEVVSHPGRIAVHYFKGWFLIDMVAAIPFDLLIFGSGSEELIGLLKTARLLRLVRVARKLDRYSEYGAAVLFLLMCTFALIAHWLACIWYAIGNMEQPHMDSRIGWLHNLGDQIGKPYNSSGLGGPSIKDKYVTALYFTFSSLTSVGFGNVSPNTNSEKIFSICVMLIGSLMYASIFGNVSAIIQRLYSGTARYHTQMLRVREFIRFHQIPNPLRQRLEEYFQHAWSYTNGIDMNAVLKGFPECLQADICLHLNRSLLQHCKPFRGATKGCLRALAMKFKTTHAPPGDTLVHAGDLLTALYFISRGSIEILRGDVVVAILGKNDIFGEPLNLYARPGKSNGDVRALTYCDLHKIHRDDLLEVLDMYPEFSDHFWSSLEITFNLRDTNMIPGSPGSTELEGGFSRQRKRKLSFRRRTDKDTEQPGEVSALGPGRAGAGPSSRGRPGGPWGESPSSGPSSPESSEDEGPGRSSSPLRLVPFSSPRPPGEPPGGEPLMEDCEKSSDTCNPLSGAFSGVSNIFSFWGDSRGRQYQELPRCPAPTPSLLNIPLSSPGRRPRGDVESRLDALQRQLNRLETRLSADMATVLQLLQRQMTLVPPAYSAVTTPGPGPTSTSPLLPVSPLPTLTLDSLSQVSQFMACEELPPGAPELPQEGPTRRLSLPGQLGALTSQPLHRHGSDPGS

SMILES	hERG current change (%, negative = inhibition) at 1uM [%]
COC(=O)Cc1csc(Nc2ccccc2Cl)n1	9.24
Cc1cccc(C(=O)NNC(=O)Nc2ccccc2)c1	7.85
O=C(NCc1cccs1)c1ccc(CS(=O)Cc2cccc(Cl)c2)o1 (stereo not shown)	12.6
NCCSc1c(-c2ccc(F)cc2)[nH]c2ccccc12	2.88
Cc1c(S(=O)(=O)N2CCC(C)CC2)c(=O)n(C)c(=O)n1C	4.24
CC(=O)Nc1ccc(NC(=O)c2sc3nc4c(c(-c5ccc(C)cc5)c3c2N)CCC4)cc1	17.1
O=C1/C(=C/N(C(=O)c2ccco2)c2ccc(Br)cc2)Sc2ccccc21	3.48
Cc1ccc(CNC(=O)CS(=O)Cc2nc(-c3cccs3)oc2C)cc1 (stereo not shown)	-5.04
C=CCn1c(-c2cccs2)nc2ccccc21	7.05
O=C(Nc1ccccc1)OCc1ccccn1	6.46
Cc1cccc(OCc2nnc(SC(C)C(=O)O)n2Cc2ccccc2)c1 (stereo not shown)	11.4
COc1ccccc1CN1C(=O)[C@@H]2C(CC(N)=O)NC3(C(=O)Nc4c3ccc(Cl)c4C)[C@@H]2C1=O (stereo partly shown)	-1.13
COC(=O)c1ccc(CSc2nc3ccccc3c(=O)n2-c2cccc(OC)c2)o1	6.56
O=C(/C=C/c1ccccc1)N(Cc1cccs1)C1CCS(=O)(=O)C1 (stereo not shown)	1.96
Cc1ccc(OCc2nnc(SCC(=O)N3c4ccccc4Sc4ccc(Cl)cc43)o2)cc1	-0.619
CC(C)CNC(=O)C1CCCN1S(=O)(=O)c1ccc(Cl)cc1 (stereo not shown)	10.6
O=C(CSc1nnnn1-c1ccc2c(c1)OCO2)NCc1ccccc1	9.19
COc1cccc(C(O)CC(N)=O)c1 (stereo not shown)	15.9
CN(Cc1nccs1)C(=O)c1cc(COc2cccc3cnccc23)on1	11.2
COc1ccc(NC(=O)CN(C)CC(=O)Nc2ccc(Cl)cc2F)cc1	0.116
Cc1ccc(CNS(=O)(=O)c2ccc3c(c2)OCCO3)cc1	1.33
CCCCCC(=O)O[C@]1(C(C)=O)CC[C@H]2[C@@H]3CCC4=CC(=O)CC[C@]4(C)[C@H]3CC[C@@]21C	16

SMILES	hERG current change (%, negative = inhibition) at 1uM [%]
C=C(C)C1CC=C(C)/C(=N/NC(=O)c2ccoc2C)C1 (stereo not shown)	9.13
O=C(O)C1CC(O)CN1C(=S)Nc1ccccc1 (stereo not shown)	11.7
CC(Cc1ccc(O)c(O)c1)C(C)Cc1ccc(O)c(O)c1 (stereo not shown)	13.9
O=C(Nc1cc(C(F)(F)F)ccc1Cl)c1ccncc1	6.79
Cc1ccc2c(c1)nc(NCCO)n2C.Cl	7.82
CCOC(=O)c1c(NC(=O)Cn2nnc(-c3ccccc3Cl)n2)sc(C)c1C	-3.72
CCOC(=O)/C(C#N)=C/c1ccc(OCC(=O)Nc2cc(C)ccc2C)c(OC)c1	13.7
C[n+]1c(-c2ccccc2)cc(-c2ccc(Cl)cc2)cc1-c1ccccc1.[O-][Cl+3]([O-])([O-])[O-]	-35.3
CC1CN(S(=O)(=O)c2ccc(Cl)c(C(F)(F)F)c2)CC(C)O1 (stereo not shown)	7.77
CC(=O)c1ccc(Nc2c3c(nc4ccccc24)CCCC3)cc1	-7.14
COc1ccc(N2C(=NC(=O)CCCc3ccccc3)SC3CS(=O)(=O)CC32)cc1 (stereo not shown)	13
O=C(N=Nc1c(O)[nH]c2ccccc12)c1cccs1	14.7
CC(C)CCN1CC(=O)N2[C@@H](Cc3c([nH]c4ccccc34)C2(C)C)C1=O	8.51
CCN(CC(=O)Nc1c(F)cccc1F)C(=O)c1ccc2c(c1)OCCO2	4.93
COc1cc(-c2cc(C(=O)NCc3ccc(S(N)(=O)=O)cc3)c3ccccc3n2)cc(OC)c1OC	14.7
Cc1cccc(CN2CCC(N3CC(C)OC(C)C3)CC2)c1.O=C(O)C(=O)O (stereo not shown)	19.7
CCSc1nc2ccccc2c(=O)n1Cc1ccc(F)cc1	13.1
CN1Cc2cc(C(=O)c3cc(Cl)cc(CSc4ncccn4)c3O)cnc2NC1=O	0.725
CCn1c(SCC(=O)NC(C)(C)C)nnc1-c1ccccn1	10.9
COc1ccc(-n2c(=S)[nH]c3cc(C(=O)NCc4ccc(F)cc4)ccc3c2=O)c(OC)c1	13.1
COc1ccc(-c2csc(-c3cccnc3)n2)cc1C	8.38

Source: article PMC4336329 (PLoS ONE, 2015)
